Measurements reported in the supplement of paper PMC9433436.
± gives the standard deviation of the averaged measurements. The full ranking holds about 4,100 sequences; the median of “relative kcat/Km (krel) vs genomic leader AAAGAU” is about 1.7, and the highest 2% start at about 6.5. Only a part is listed here, and it is no random draw.

Molecular target: T1, E. coli RNase P holoenzyme (M1 P RNA + rnpA protein) (UniProt P0A7Y8)
T1 sequence: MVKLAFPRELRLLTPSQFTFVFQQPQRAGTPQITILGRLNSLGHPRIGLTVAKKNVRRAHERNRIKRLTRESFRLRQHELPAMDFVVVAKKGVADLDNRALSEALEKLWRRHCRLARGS
Assay: relative kcat/Km (krel) vs genomic leader AAAGAU (relative (reference leader = 1)); higher = faster RNase P cleavage
Description: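 HTS-Kin: a pool of ptRNA-Met (21C construct) with all 4096 combinations of 5' leader nucleotides N(-6) to N(-1) was processed in vitro by E. coli RNase P (P RNA + rnpA/C5 protein) under multiple-turnover conditions at 37 C, pH 8, 17.5 mM MgCl2. Residual substrate was Illumina-sequenced at several fractions reacted, and relative kcat/Km (krel) was computed by internal competition kinetics, calibrated to the genomic leader (AAAGAU = 1). The listed hexamer is the varied N(-6)..N(-1) leader (DNA letters), and it sits between a fixed 5' stem-loop flank (GCAUGCACGAAAGUGCGUGCUAUGAA) and the mature tRNA-Met starting GGCUACGUAGCUCAGUUGG. Two technical replicates are averaged.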

[1] = fraction of substrate reacted: ~26-29% (28.66% repeat 1, 26.4% repeat 2)
[2] = fraction of substrate reacted: ~9-10% (9.79% repeat 1, 9.1% repeat 2)
[3] = fraction of substrate reacted: ~13-16% (15.68% repeat 1, 13.17% repeat 2)

| Sequence | relative kcat/Km [1] | relative kcat/Km [2] | relative kcat/Km [3] |
| --- | --- | --- | --- |
| GAGAGG | 0.557 ± 0.14 | – | – |
| CTTATT | 3.73 ± 1.6 | 2.42 ± 1 | 2.76 ± 0.34 |
| AAACCT | 1.63 ± 0.63 | 1.79 ± 1.5 | 1.27 ± 0.11 |
| AGTGCT | 0.89 ± 0.51 | 0.993 ± 0.46 | 0.79 ± 0.14 |
| TATTCA | 3.81 ± 1.7 | 2.58 ± 0.84 | 2.98 ± 0.13 |
| CACCTC | 3.82 ± 1.3 | 2.99 ± 1.4 | 2.94 ± 0.042 |
| CAGCGG | – | 0.407 ± 0.34 | – |
| CGACAG | 2.08 ± 1.1 | – | – |
| AGATTT | 4.68 ± 1.8 | 3.33 ± 0.85 | 3.6 ± 0.94 |
| ACACGC | 3.32 ± 1 | 2.18 ± 0.42 | 2.65 ± 0.23 |
| AGTAGA | 5.63 ± 1.9 | 2.63 ± 0.91 | 3.4 ± 0.4 |
| TCATGC | 4.85 ± 2.6 | 1.56 ± 1.4 | 2.93 ± 1.1 |
| ATTCTT | 3.43 ± 1.3 | 2.59 ± 1.3 | 2.73 ± 0.18 |
| ACCGAA | 6.81 ± 3 | 3.81 ± 1.6 | 4.31 ± 1 |
| ATGGAA | 0.998 ± 0.66 | 0.941 ± 0.85 | 0.606 ± 0.34 |
| ACTTCA | 1.97 ± 0.69 | 1.02 ± 0.33 | 1.482 ± 0.014 |
| TGAAGC | 2.86 ± 0.053 | 2.1 ± 1.1 | 2.64 ± 0.89 |
| CTTTGT | 1.9 ± 1.5 | 1.23 ± 0.47 | 1.83 ± 0.55 |
| GGGAGA | 1.46 ± 0.63 | 0.529 ± 0.31 | 0.919 ± 0.067 |
| TATTCT | 5.78 ± 2.3 | 3.27 ± 1.2 | 4.15 ± 0.4 |

| Sequence | relative kcat/Km [1] | relative kcat/Km [2] | relative kcat/Km [3] |
| --- | --- | --- | --- |
| GATCAG | 2.31 ± 0.34 | – | 0.322 ± 0.049 |
| GTGATC | 1.58 ± 0.39 | 2.02 ± 0.21 | 1.56 ± 0.56 |
| ACAAAC | 2.42 ± 0.36 | 1.92 ± 1.6 | 1.88 ± 1.1 |
| GGGTCG | 0.592 ± 0.082 | – | – |
| GCTAAC | 2.1 ± 0.56 | 1.25 ± 0.023 | 1.09 ± 0.85 |
| GTCGCT | 3.35 ± 1 | 2.09 ± 1.2 | 2.03 ± 0.41 |
| ATGAAT | 3.11 ± 1 | 1.23 ± 0.64 | 2.19 ± 0.089 |
| AGGCTT | 0.621 ± 0.098 | – | – |
| TGTGAT | 1 ± 0.32 | 1.42 ± 0.34 | 0.736 ± 0.6 |
| GAAGGG | 1 ± 0.96 | – | – |
| GCCGTC | 2.72 ± 0.89 | 1.28 ± 0.43 | 1.56 ± 0.46 |
| GGATCG | 1.11 ± 0.57 | – | 0.717 ± 0.7 |
| AAAAGT | – | 1.32 ± 1.1 | – |
| GTATCG | 2.18 ± 0.42 | – | – |
| TATCAA | 5.47 ± 2.8 | 2.7 ± 0.57 | 3.55 ± 0.23 |
| TGCCAT | 4.45 ± 1.8 | 2.8 ± 0.93 | 2.89 ± 0.61 |
| TCTGTA | 2.08 ± 0.3 | 1.94 ± 1.6 | 1.58 ± 0.73 |
| ACGCGG | 0.601 ± 0.031 | 0.737 ± 0.44 | 0.406 ± 0.35 |
| CTGGAA | 0.509 ± 0.11 | 0.795 ± 0.032 | – |
| GGCCGA | 3.95 ± 1.3 | 1.949 ± 0.015 | 2.42 ± 0.35 |

| Sequence | relative kcat/Km [1] | relative kcat/Km [2] | relative kcat/Km [3] |
| --- | --- | --- | --- |
| CTAAGG | 0.617 ± 0.46 | 0.616 ± 0.073 | – |
| GATCCC | – | 1.88 ± 1.6 | – |
| CGAGGA | 1.41 ± 0.09 | 1.55 ± 0.89 | 0.967 ± 0.6 |
| TGAACT | 2.58 ± 0.76 | 1.41 ± 0.67 | 1.85 ± 0.71 |
| GTTGCT | 1.08 ± 0.14 | 1.31 ± 0.97 | – |
| TCGCCA | 1.98 ± 0.91 | 1.7 ± 1.1 | 1.97 ± 0.14 |
| GAACTT | 2.24 ± 0.82 | 1.17 ± 0.27 | 2.01 ± 0.035 |
| ATCGGT | 1.34 ± 0.33 | – | – |
| TCTTTT | 4.29 ± 1.7 | 2.83 ± 0.77 | 3.27 ± 0.55 |
| CTGATG | 0.566 ± 0.16 | – | – |
| TACCCG | 2.34 ± 0.82 | 1.12 ± 0.77 | 0.792 ± 0.78 |
| GAGTTG | 0.549 ± 0.24 | – | – |
| AGTTGA | 5.25 ± 2.5 | 2.04 ± 0.023 | 2.78 ± 1.2 |
| CCGGGC | – | 0.693 ± 0.032 | – |
| TATTTC | 4.12 ± 1.9 | 3.05 ± 1.6 | 2.87 ± 0.086 |
| GTGTTA | 1.45 ± 0.14 | 1.3 ± 0.062 | 1.32 ± 0.083 |
| GGCCAT | 4.24 ± 2 | 2.24 ± 0.2 | 2.71 ± 0.61 |
| GAATAT | 6.29 ± 3.4 | 2.99 ± 0.33 | 4.3 ± 0.79 |
| GTAATC | 2.8 ± 0.97 | 2.47 ± 1.5 | 1.92 ± 0.42 |
